PubChem BioAssay AID1508623 (National Center for Advancing Translational Sciences (NCATS), 2021)
Out of some 48,000 compounds screened, about 450 (0.94%) were called active. Roughly 19% stayed inconclusive and do not appear here. The call rests on the fitted dose curve; in most records, active means well fitted inhibition curve with a large enough effect; inconclusive means small, poorly fitted or top-dose-only effect; inactive means no such curve, though single readings can be large or run the other way. The list shows a part of the results.

experiment: Primary qHTS for Identification of Small Molecule Inhibitors of Huntingtin Promoter Activity; conditions: HEK293 HTT promoter firefly luciferase reporter (activity 0% = vehicle and -100% = no light), 24 h; series mostly up to 57.5 µM; activity change, negative = inhibition: at the top concentration; further: nearly all actives have a fitted effect of over 50% in size
Summary of the method: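 Luminescence was read after Dual-Glo reagent and a 10 min room-temperature incubation. Values were normalized to vehicle (0% activity) and zero RLU (-100% activity). Reporter HEK293 cells had been exposed to compounds (up to 57.5 uM final) for 24 h.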

Activity change, negative = inhibition, inactive:
Cc1ccc(CSc2ncc(Cl)c(C(=O)Nc3sc4c(c3C(N)=O)CCCC4)n2)cc1 -7.31%
O=C(Cn1cnc2nc3c(cc2c1=O)CCCC3)N1CCN(c2ccccc2)CC1 -11.4%
Cc1cccc(C#Cc2ccccc2)n1 -2.33%
Cc1cccc(N2CCN(Cc3nnc(-c4ccc5c(c4)OCO5)o3)CC2)c1C -8.95%
CCc1nn2c(=O)cc(COc3ccc(/C=C(\C#N)C(=O)Nc4ccc(C)cc4)cc3)nc2s1 -6.47%
O=C(Cn1c(=O)c2cccn2c2ccc(F)cc21)N1CCN(c2ccccc2)CC1 -2.72%
CCc1ccc(NC(=O)Cn2c(=O)n(CC3CCCO3)c(=O)c3cc(OC)c(OC)cc32)cc1 (stereo unspecified) -5.66%
COc1ccc(NC(=O)Nc2ccccc2OCc2cc(=O)n3ccccc3n2)c(OC)c1 4.16%
O=C(CN1C(=O)C2CCCCN2c2ccc(C(=O)N3CCCC3)cc21)NCc1cccc(F)c1 (stereo unspecified) -4.28%
C[C@H](O)C(=O)Nc1c(I)c(C(=O)NC(CO)CO)c(I)c(C(=O)NC(CO)CO)c1I 13%
CCN(CC)c1ccc(NC(=O)CN2C(=O)c3cccnc3Sc3ccccc32)c(C)c1 21%
CC(=O)N1CCc2c(sc3c2c(=O)n(CCc2ccccc2)c(=O)n3Cc2cccc(C)c2)C1 -25%
O=c1c(=O)n(Cc2c(F)cccc2Cl)ccn1Cc1ccccc1 -15.1%
CC(C)NC(=O)Cn1nc(N2CCN(c3ccccc3)CC2)ccc1=O -1.39%
CCOc1cc(C2C(C(=O)OC)=C(C)NC3=C2C(=O)c2ccccc23)c(Br)cc1O (stereo unspecified) -29.7%
Cc1ccc(-c2c3c(=O)n(C)c(=O)n(C)c3cn2-c2cc(C)ccc2O)cc1 -19.6%
COc1ccc(N2CCN(C3C(=O)c4ccccc4N3C(C)=O)CC2)cc1 (stereo unspecified) -29.5%
COc1cccc(NC(=O)Cn2c(=O)n(CC(=O)NCCc3ccccc3)c(=O)c3sccc32)c1 -11%
Cc1c(Cl)cccc1NC(=O)CSc1nc(=O)n(Cc2cccnc2)c2c1CCC2 5.6%
COC(=O)C1CCN(C(c2ccccc2)c2sc3nc(-c4ccco4)nn3c2O)CC1 (stereo unspecified) -7.79%
O=C1CC(c2nc(-c3ccccc3)no2)CN1c1ccc2c(c1)OCCO2 (stereo unspecified) -12.7%
Cc1ccc(Cn2cc(S(=O)(=O)c3ccc(C)cc3)c(=O)c3cc(F)c(N4CCCC4)cc32)cc1 5.5%
COc1ccc2c(c1)c1c(c(=O)n(Cc3ccccc3)c(=O)n1CC(=O)Nc1ccc(C)cc1C)n2C -11.4%
O=C(Nc1nnc(S(=O)(=O)N2CCCCCC2)s1)c1ccccc1Br -11.7%
c1ccc(CCNc2nc(-c3ccccc3)cs2)cc1 30.9%
Cc1ccc(NC(=O)C2CCCN(S(=O)(=O)c3c(C)n[nH]c3C)C2)cc1C (stereo unspecified) -14.5%
